Source: PMC10668032
Some of the results follow. At the low end of the ranking, values are background and their order means little.

What follows are sequences tested against SIX1-Q177R homeodomain (UniProt Q15475) (assay: universal protein binding microarray). Settings: Universal all-10-mer PBM (8x60K, AMADID 030236), 300 nM GST-tagged protein, Alexa Fluor 488 anti-GST; buffer, salt, pH and temperature not stated; high values mean tight binding; most listed sequences are background and not binding sites; double strand, one strand shown.

| Sequence | binding signal [E-score] |
| --- | --- |
| GGTTTTCA | -0.00496 |
| AAGTCATC | -0.289 |
| GCCCACTA | -0.194 |
| GCAAGCCC | -0.19 |
| AGATACAC | 0.424 |
| CCTAGTGA | 0.0144 |
| ACCCTGAA | 0.21 |
| AATCCCCG | 0.0549 |
| GGAGAACA | 0.0126 |
| CGCAGTGC | 0.0332 |
| AGGTAAAA | -0.167 |
| AGCCTGCG | -0.182 |
| CCCGGATA | 0.164 |
| ACCAATCC | -0.0178 |
| ACGCTGGG | 0.154 |
| ACCAGAGT | 0.16 |
| CGATGCGA | -0.0651 |
| AGAAGGAC | -0.121 |
| AATGACCC | 0.181 |
| CCTTTTGC | -0.0587 |
| GACAAGGA | -0.0636 |
| CGCTTTCC | -0.269 |
| GCATTGGC | -0.111 |
| ACTATCGC | -0.151 |
| AGCATTGC | -0.206 |

| Sequence | binding signal [E-score] |
| --- | --- |
| CTGTGAGC | 0.0245 |
| CTCAGCTA | -0.0971 |
| CAAAATAC | 0.162 |
| AGACCGTC | -0.0918 |
| GTCACTTA | -0.0512 |
| AGTCCTAA | -0.279 |
| ACTGATAT | 0.00484 |
| CGCAACAA | -0.127 |
| ATCCGAAG | -0.0355 |
| GCGATTTA | -0.218 |
| TAGACTAA | -0.253 |
| ACTCATGC | -0.04 |
| CTGGCCCA | -0.322 |
| TATTCCGA | -0.206 |
| CCATAGCA | 0.139 |
| AATACGTC | -0.152 |
| CGACACTA | 0.41 |
| AATCTCAC | -0.105 |
| ATCGCATC | 0.0318 |
| ATAATGCA | -0.0455 |
| GGTTCGCA | -0.0216 |
| GACTCACC | -0.11 |
| AGAAAGGA | -0.102 |
| CAATTCTC | -0.136 |
| AACCTTAG | -0.198 |

| Sequence | binding signal [E-score] |
| --- | --- |
| CTTAGGTC | -0.0712 |
| ATTAAAAG | -0.215 |
| TAACCGGA | 0.105 |
| ACTGTGCT | -0.0781 |
| CTCAGGCA | 0.0139 |
| AGAGTAAC | 0.163 |
| ATGGCAGC | -0.135 |
| TCTAAAGA | -0.0589 |
| ACTAGTAC | 0.106 |
| CACTCTCA | 0.131 |
| CATGCAAA | -0.15 |
| CTGGGTGC | 0.0259 |
| CCTCGAAG | -0.209 |
| GAATAACC | -0.0265 |
| CACAGTCA | 0.119 |
| ACGATTCA | -0.112 |
| GCTTTCCA | -0.272 |
| GGTGTGCA | 0.391 |
| AATCAGCC | -0.229 |
| ACACCGAA | 0.469 |
| ATATAAGA | -0.0163 |
| GCTTGTAA | -0.187 |
| AGGGCCCT | -0.22 |
| TACCTTGA | 0.132 |
| CACTAGCC | 0.177 |

| Sequence | binding signal [E-score] |
| --- | --- |
| AGGGGTGA | 0.13 |
| AACGATCT | -0.25 |
| AGGATAGC | -0.0999 |
| ATCCACCA | -0.0248 |
| GGTAGCCA | -0.0624 |
| GGTTATAA | -0.113 |
| CAGGAATG | -0.0712 |
| ATGCCAAT | -0.0711 |
| AGAAAGTA | -0.116 |
| CCAGGACG | 0.00799 |
| ACGTCGCG | 0.00292 |
| AAACCCCG | 0.231 |
| CCCTCAGC | 0.0894 |
| AACTGAGC | -0.00895 |
| CCTCTCCG | -0.0794 |
| ACGACCCC | 0.244 |
| GAGAGGAC | -0.0713 |
| GGCGACGA | -0.033 |
| AGGCTCTC | -0.08 |
| ATCCCTTG | -0.0196 |
| AGGTATTC | -0.00521 |
| CCCCCGCC | 0.228 |
| CAGGCCCA | -0.206 |
| CATAGGAC | 0.035 |
| CTTTTGAA | -0.163 |

| Sequence | binding signal [E-score] |
| --- | --- |
| AATGTGGG | -0.00835 |
| CTCTTGGC | -0.00764 |
| AGGTATTG | -0.0818 |
| GCAGGAGC | 0.00311 |
| ATTGTCGC | -0.249 |
| TATTACAA | -0.161 |
| CACGGATC | 0.279 |
| CCGTTAAA | -0.12 |
| AAGGTACG | 0.0373 |
| CTTTAAAC | -0.155 |
| CATCAAGA | -0.152 |
| AAACGTAC | -0.0873 |
| ATTTCCAA | -0.0754 |
| GCTAACTA | 0.013 |
| ATCACGTC | 0.0297 |
| ACCGACAT | -0.00993 |
| CTACAGTA | 0.0353 |
| CGCAATAC | 0.276 |
| GAGGGCGC | -0.0432 |
| ATGATATG | -0.169 |
| CGTCCACA | -0.0724 |
| TAAGTCTA | 0.00543 |
| CGAGCGTC | -0.0964 |
| AGATTCCC | -0.113 |
| ACATTGCA | -0.0254 |

| Sequence | binding signal [E-score] |
| --- | --- |
| AGCCGCGG | 0.0295 |
| AAAATTGT | 0.0432 |
| AATGTAGG | -0.0761 |
| AATAACGA | -0.0269 |
| TACAGGTA | -0.137 |
| CGCTTTAC | -0.107 |
| AATCAGGT | -0.183 |
| CACATCCA | -0.13 |
| CTCGTGTA | 0.398 |
| ACCGCTCA | -0.189 |
| CGTATGGA | -0.114 |
| TACCCCTA | 0.229 |
| CCAACTCC | 0.0846 |
| GGGAGGGA | 0.0853 |
| CTTCGTCC | -0.117 |
| AGCTCGAA | -0.258 |
| AGAGTCAC | 0.111 |
| CCTGAACC | 0.134 |
| ATAGCACG | 0.157 |
| CCCGCGCA | 0.176 |
| GTCTTAAC | 0.129 |
| TAATGCAA | -0.174 |
| ATGCACGA | 0.0693 |
| ATCCCAAA | -0.198 |
| CCAAGTCG | 0.0759 |

| Sequence | binding signal [E-score] |
| --- | --- |
| AGGCTCAA | -0.271 |
| ATAGAAAA | -0.0679 |
| AATCCGCG | -0.0557 |
| ACCTTCAA | -0.137 |
| CCTCAAGG | -0.0906 |
| CCCACTTC | 0.0304 |
| CGAGTGAG | 0.13 |
| GAGGGCAC | 0.00566 |
| ATTGCCAG | 0.00609 |
| CCACACTC | 0.308 |
| CACGCGTA | 0.184 |
| GACTGAGC | -0.178 |
| ATGGTAAT | -0.0901 |
| CGAGGAAA | -0.0731 |
| ATCATGGA | 0.00887 |
| TCGACGCA | -0.00609 |
| CAGCGAAA | -0.0825 |
| GCCAGCAA | -0.163 |
| GCCCGATA | 0.142 |
| GGTCCTAC | -0.0757 |
| CGAACTAC | -0.0698 |
| AAATCTTG | -0.257 |
